Several values for one entry are separate records, joined by “and”; a condition that tells them apart may be missing. Equal values may be shown once. At least one read-out could not be matched to a standard name with certainty.
Test system: lymphocytic leukemia P388
Assay: in vivo lymphocytic leukemia P388 test
Design: species or system mice
Details: two single doses four days apart, listed as 7,10-(OH)2, (CH2)2N(Me)2·2HCl
Outline: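 CD2F mice (6–7 per group) were inoculated intraperitoneally with P388 leukemia ascitic cells. Compounds were then given i.p. as two doses four days apart at various levels. Survival over 30 days was expressed as treated/control time ratio, efficacy criterion T/C×100 >125%.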

CN(C)CCn1nc2c3c(c(NCCN)ccc31)C(=O)c1c(O)ccc(O)c1-2 [Example 33, 5-[(2-Aminoethyl)amino]-2-[2-(dimethylamino)ethyl]-7,10-dihydroxyanthra[1,9-cd]pyrazol-6(2H)-one]
T/C × 100 (Percent) (P388, Dose 0.78 mg/kg intraperitoneally, NH(CH2)2NH2, 0.78 mg/kg): 194% and 146%
T/C × 100 (Percent) (P388, Dose 1.56 mg/kg intraperitoneally, NH(CH2)2NH2, 1.56 mg/kg): 194% and 149%
T/C × 100 (Percent) (P388, Dose 3.12 mg/kg intraperitoneally, NH(CH2)2NH2, 3.12 mg/kg): 173%
T/C × 100 (Percent) (P388, Dose 6.25 mg/kg intraperitoneally, NH(CH2)2NH2, 6.25 mg/kg): 192%
T/C × 100 (Percent) (P388, Dose 12.5 mg/kg intraperitoneally, NH(CH2)2NH2, 12.5 mg/kg): 283% and 245%
